# ChEMBL document CHEMBL4888484, “Replenishing the malaria drug discovery pipeline: Screening and hit evaluation of the MMV Hit Generation Library 1 (HGL1) against asexual blood stage Plasmodium falciparum ,using a nano luciferase reporter read-out” (2022)
# Among all 150,000 compounds or so, about 540 (0.36%) showed an effect of 50% or more. The list shows a part of the results.
# Tested on: Plasmodium falciparum
# Assay: Primary screen in NF54 nanoGlo assay, in single point, at 2uM, 72h; a lower Z score goes with more inhibition
# Assay type: functional, Erythrocyte
# Settings: timepoint 72 hour
Compound,% Inhibition,Z score
COc1cccc(CC(=O)Nc2ccc(Cn3cnc(C(=O)Nc4cc(C)ccc4OC)c3)cc2)c1,-16%,1.88
Cc1ccc2[nH]c(C3CN(C(=O)NCCCc4ccccc4)C3)nc2c1,-12%,2.33
Cc1ccc([C@H](C)NC(=O)C(=O)c2cccnc2)nc1,-9%,1.52
O=C(NC1CC1)C1CN(C(=O)c2c[nH]c3ccccc23)C1,-10%,1.17
COCCNCCCOc1ccc(Br)cc1C,-8%,1.02
COc1ccc(NC(=O)[C@@H]2CC(=O)Nc3nc(N4CCCCC4)nc(N)c32)cc1,-13%,2.43
CCc1ccccc1CN1C[C@@H](CN2CCCCC2)[C@@H](CO)C1,-1%,0.13
Cc1noc(C)c1CN(C)C(=O)c1cc(CC(C)C)no1,-5%,0.58
CCN1CCN(C(=O)c2ccccc2N2CCC(NC(=O)c3cccc(Br)c3)CC2)CC1,48%,-8.05
COc1ccc(CN2CCN(Cc3cccn3-c3cccnc3)C[C@@H]2CCO)cc1C,13%,-1.49
O=C(Nc1cnn(-c2ccccn2)c1)N[C@H]1CCc2ncnn2C1,-1%,0.21
CC[C@]1(C)NC(=O)N(CCCNc2cccc(C)n2)C1=O,-13%,1.35
O=C(C1CCN(c2nccs2)CC1)N1CCC(c2nc3ccccc3o2)CC1,-24%,2.96
COCCOC(=O)NC[C@@H]1C[C@H](F)CN1C(=O)c1sc(C)nc1C,-1%,0.13
O=C(O)c1ccc(CN2C[C@@H](F)[C@@H](OCc3nc4ncccc4[nH]3)C2)cc1,30%,-3.39
CN(CCCn1cccn1)Cc1nc(C(F)(F)F)no1,-9%,0.87
COc1cc(-c2cc(C(=O)Nc3ccc(Cl)c(S(=O)(=O)Nc4cccc(Cl)c4)c3)c3ccccc3n2)cc(OC)c1OC,8%,-1.65
O=C(c1ccc2ccccc2c1)[C@@H]1[C@@H]2CCCN2[C@]2(C(=O)Nc3ccc(Cl)cc32)[C@@]12C(=O)Nc1ccccc12,35%,-3.94
Cn1cccc1-c1nc2cc(N)ccc2[nH]1,-3%,0.34
COCCN(Cc1cncs1)C(=O)C1CCOC1C (centres undefined),-10%,1.82
CN(CC(=O)Nc1ccc(F)cc1)C(=O)COC(=O)CC1CCCC1,-21%,3.06

Compound,% Inhibition,Z score
C[C@H](NC(=O)CS(C)(=O)=O)c1ccc(F)cc1F,-4%,0.56
O=C(Nc1nccs1)c1ccc2c(c1)C(=O)N(C[C@H]1CCCO1)C2=O,-5%,0.89
O=C(C1CCCC1)N(CC1CCN(C2Cc3ccccc3C2)CC1)C[C@H]1CCCO1,-10%,0.87
O=S(=O)(c1ccc(Br)c(Cl)c1)N(C[C@H](O)c1ccccc1)C1CC1,-9%,1.22
COC(=O)C1CCCCCC1NC1CCN(C)C1=O (centres undefined),-9%,1
COc1ccnc(N2CCN(S(=O)(=O)Cc3ccccc3)CC2)c1,-3%,0.3
COc1ccc(-c2noc(-c3ccc(N4CCN(c5ccccc5OC)CC4)nc3)n2)cc1,-19%,2.13
O=C(CCc1nc(-c2cc3ccccc3nc2O)no1)NCc1ccc(Cl)cc1,-11%,2.08
CCCOc1cccc(CNCCCN(C)C)c1,0%,-0.06
Cc1ccccc1CN1CCc2nc(N3CCC(C)CC3)ncc2C1,0%,0.06
N#Cc1cccnc1N1CC[C@H](c2ccccn2)C1,-1%,0.24
CN(C)C(=O)c1ccc(CN2CCc3ccc(Cl)cc32)[nH]1,-15%,1.58
COc1ccc(C(=O)N2CC[C@H](c3noc(-c4cccnc4)n3)C2)cn1,-9%,1.11
O=C(NCC1(C2CC2)CC1)c1cnn2ncccc12,-7%,1.03
COCC1(CNC(=O)c2ccc(-c3ccncc3C)cc2)CCC1,8%,-1
CC(C)c1nc(Cn2nnc([C@@H](NC(=O)c3ccccc3)C(C)C)n2)cs1,-11%,1.68
N#Cc1ccc(NC[C@H](O)c2cccc(Br)c2)nc1,-12%,1.57
CCn1ccc(CC(=O)N2CCCc3c(OC)cc(OC)cc32)n1,-2%,0.27
CCc1nc(N)sc1C(=O)N[C@H]1CC(=O)Nc2ccccc21,-14%,1.31
Cc1nc(CN2CCC(n3nccc3NC(=O)c3cccc(F)c3)CC2)c[nH]1,-10%,0.89
CC[C@@H](CS(=O)(=O)c1ccccc1)NC(=O)NCc1cccnc1,1%,-0.11

Compound,% Inhibition,Z score
COc1nc(OC)nc(-c2cccc3cccnc23)n1,-7%,0.95
CCc1nc(C)c(CN2CCC(CCC(=O)NC[C@H]3CCCO3)CC2)[nH]1,6%,-0.94
CCC(=O)N1CCCN(c2nc(Cc3ccccc3)nc3onc(-c4ccc(C(C)(C)C)cc4)c23)CC1,-10%,1.59
Cc1csc2ncnc(NCc3nnc([C@@H]4CCCO4)[nH]3)c12,-10%,1.01
CC(C)(C)c1nc(Cn2nnc3ccccc3c2=O)no1,-1%,0.2
N#Cc1cnc(NC[C@H](O)c2ccc(-c3ccccc3)cc2)cn1,1%,-0.14
COc1ccccc1OC1(C(=O)O)CCN(Cc2cc3ccccc3o2)CC1,-4%,0.45
CCC(NC(=O)c1cc(C)cc(OC)c1O)C1CCOC1 (centres undefined),2%,-0.38
COCCS(=O)(=O)Nc1ccc(NCCO)c(C(F)(F)F)c1,-11%,2.03
CC1(C)CC[C@H](Cn2cnc3c2CCCC3)O1,-8%,0.86
CC1CCC(N(C)S(=O)(=O)c2ccc3c(c2)CCC3)CC1 (centres undefined),5%,-0.42
CCCC[C@@H]1C[C@@H]1C(=O)N1CCC(n2cc(CC(C)C)nn2)CC1,-7%,1.06
Cc1nn(-c2ccccc2)c2c1N=C(c1ccccc1)C[C@@H](c1ccccc1)N2,-7%,1.1
COC(=O)C1CCCCCC1NCc1noc(C2CC2)n1 (centres undefined),-17%,1.76
O=C1CCc2cc(S(=O)(=O)N3C[C@@H]4[C@H](C3)[C@H]3CC[C@@H]4O3)ccc2N1,-14%,2.65
O=C(Nc1cccnc1-n1cc(Cl)cn1)c1cccc(Br)c1,-5%,0.67
COc1cncnc1NC(=O)N1CCN(c2c(F)cccc2F)CC1,-16%,2.55
C[C@@H](O)C(=O)N1CCC2(CC1)Cc1cccc(c1)Oc1cccc(c1)CCNC2=O,-12%,1.48
CCCc1nccn1Cc1ccc(Cl)cn1,-7%,0.84
O=S(=O)(CC1CC(F)(F)C1)N[C@]12CCC[C@H]1OCC2,-5%,0.41
CC1CCC2(CC1)OC[C@@H](C(=O)N1CCCC1)N2C(=O)c1ccccc1 (some centres undefined),-8%,0.78

Compound,% Inhibition,Z score
COc1ccc(C2(c3nc(-c4ccc(=O)[nH]c4)no3)CC2)cc1,-9%,1.71
O=C(Cn1cc(Cl)cn1)N1CCC(N2CCc3ccccc3C2)CC1,-14%,1.8
COc1cccc(CO[C@@H]2CN(C(=O)CCc3scnc3C)CC(=O)N(Cc3ccccn3)C2)c1,-2%,0.22
CN(Cc1ccccc1)C(=O)C1C(c2cccc(NC(=O)c3ccccc3F)c2)OC(=O)N1Cc1ccccc1 (centres undefined),-12%,1.15
CN1CCCC(N(C)C(=O)c2ccc(NC(=O)C(C(=O)O)C(C)(C)C)cc2)C1 (centres undefined),0%,0.05
COC(=O)C1CCN2C(=O)N(c3ccc(OC(F)F)nc3)C(=O)C2C1 (centres undefined),-11%,1.71
CC1(C)C2CN(C(=O)C3CCC(C(N)=O)CC3)CC21 (centres undefined),-4%,0.37
CCC1(CC)CCCN(C(=O)c2cnn(C)c2)CC1,-7%,1.35
CCc1cccc(NC(=O)N2CCN(C3=CC4=NC[C@H](C)N4C=N3)CC2)c1,58%,-5.02
CS(=O)(=O)c1ccc(S(=O)(=O)N2CCC[C@H](C(=O)c3cccc(Cl)c3)C2)cc1,-1%,0.16
Cc1cc(C)c2c(c1)-c1c(ssc1=S)C(C)(C)N2C(=O)CCC1CCCCC1,-5%,0.64
COC(=O)N[C@H](C(=O)Nc1ccc(Cl)cc1C)C(C)C,4%,-0.79
CCNC(=O)[C@@H]1CCCN1C(=O)Nc1cccc(-c2ccccc2OC)c1,1%,-0.25
CCCN1CCCN(C(=O)c2cccc3ccnn23)CC1,1%,-0.17
Cc1ccc(NC(=O)CN2CCn3cccc3[C@H]2c2ccc(F)cc2F)cc1C,0%,-0.02
CC[C@H]1C[C@@H](NC(C)=O)C[C@@H](c2c(C)ccc3ccccc23)O1,-2%,0.3
CO[C@@H](CNC(=O)N1CCC(c2nnc(CO)n2C)CC1)c1cccs1,12%,-1.71
O=C(Nc1cc(C2CCCC2)[nH]n1)c1cscn1,-15%,2.31
COc1ccc(CN(C(=O)N[C@H]2CC[C@H](O)CC2)C2CCCC2)c(OC)c1,0%,-0.09
